Source: the supplement of paper PMC4967469

Key:
Experiment in all cases: Viability of human cancer cell lines after 72 h of drug (GDSC screen)
SNX-2112 = compound: CC1(C)CC(=O)c2c(C(F)(F)F)nn(-c3ccc(C(N)=O)c(N[C@H]4CC[C@H](O)CC4)c3)c2C1 [SNX-2112]; settings: top dose 2.56 µM
Procedure: (§1)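 Human cancer cell lines in 384-well plates, medium with 10% serum, drug for 72 h over a 256-fold dose range (nine 2-fold or five 4-fold steps up to the top dose). Adherent lines were fixed and stained with the nucleic acid dye Syto60, suspension lines read with resazurin; signal relative to control wells, capped at 0 and 100%. One two-parameter sigmoid per drug and line, fitted in a mixed model over all curves with the slope shared within a line.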

Vinblastine = compound: CC[C@]1(O)C[C@@H]2CN(CCc3c([nH]c4ccccc34)[C@@](C(=O)OC)(c3cc4c(cc3OC)N(C)[C@H]3[C@@](O)(C(=O)OC)[C@H](OC(C)=O)[C@]5(CC)C=CCN6CC[C@]43[C@@H]65)C2)C1 [Vinblastine]; settings: top dose 0.1 µM; top dose inferred
Procedure: as §1

Afatinib = compound: CN(C)C/C=C/C(=O)Nc1cc2c(Nc3ccc(F)c(Cl)c3)ncnc2cc1O[C@H]1CCOC1 [Afatinib]
Procedure: as §1

PF-562271 = compound: CN(c1ncccc1CNc1nc(Nc2ccc3c(c2)CC(=O)N3)ncc1C(F)(F)F)S(C)(=O)=O [PF-562271]; settings: top dose 2.56 µM; top dose inferred
Procedure: as §1

XMD13-2 = compound: O=C(NC1CC1)c1cccc(-c2ccc3c(NC(=O)C4CC4)n[nH]c3c2)c1 [XMD13-2]; settings: top dose 10.24 µM; top dose inferred
Procedure: as §1

[1] = top dose 0.5 µM, screen: GDSC drug entry 1032
[2] = top dose 10 µM, screen: GDSC drug entry 1377, top dose inferred

Cell Line	AUC (SNX-2112)	IC50 (SNX-2112) [nM]	AUC (Vinblastine)	IC50 (Vinblastine) [nM]	AUC (Afatinib; [1])	IC50 (Afatinib; [1]) [nM]	AUC (Afatinib; [2])	IC50 (Afatinib; [2]) [nM]	AUC (PF-562271)	IC50 (PF-562271) [nM]	AUC (XMD13-2)	IC50 (XMD13-2) [nM]
T47D (breast, adherent)	0.74	1150	0.659	22	0.909	> 500	0.86	> 10000	0.931	> 2560	0.877	> 10200
T84 (large intestine, adherent)	0.562	237	0.987	> 100	0.976	> 500	0.952	> 10000	0.983	> 2560	0.936	> 10200
T98G (glioma, adherent)	0.647	395	0.598	–	0.986	> 500	0.986	> 10000	0.944	> 2560	0.967	> 10200
T-T (oesophagus, adherent)	0.626	355	0.424	3.87	0.763	180	0.758	3460	0.872	2430	0.973	> 10200
TE-1 (oesophagus, adherent)	0.922	> 2560	0.588	11.6	0.813	363	0.805	6740	0.95	> 2560	0.963	> 10200
TE-5 (oesophagus, adherent)	0.927	> 2560	0.514	6.85	0.938	> 500	0.92	> 10000	0.888	> 2560	0.967	> 10200
TE-6 (oesophagus, adherent)	0.847	2380	0.78	48.4	0.796	281	0.86	> 10000	0.936	> 2560	0.977	> 10200
TE-8 (oesophagus, adherent)	0.682	537	0.463	4.92	0.897	> 500	0.962	> 10000	0.938	> 2560	0.985	> 10200
TE-9 (oesophagus, adherent)	0.985	> 2560	0.534	7.79	0.917	> 500	0.972	> 10000	0.89	> 2560	0.986	> 10200
TE-11 (oesophagus, adherent)	0.959	> 2560	0.383	3.07	0.944	> 500	0.904	> 10000	0.832	1450	0.938	> 10200
TE-12 (oesophagus, suspension)	0.899	> 2560	0.846	97.7	0.774	240	0.81	6690	0.899	> 2560	0.976	> 10200
TE-15 (oesophagus, suspension)	0.574	262	0.678	21	0.677	105	0.671	2000	0.881	> 2560	0.985	> 10200
TGBC1TKB (biliary tract, adherent)	0.948	> 2560	0.733	28.6	0.986	> 500	0.977	> 10000	0.947	> 2560	0.985	> 10200
TGBC11TKB (stomach, adherent)	0.511	170	0.709	22.4	0.99	> 500	0.976	> 10000	0.983	> 2560	0.983	> 10200
TGW (neuroblastoma, adherent)	0.363	70.9	0.762	31.1	0.991	> 500	0.984	> 10000	0.959	> 2560	0.903	10200
TOV-21G (ovary, adherent)	0.894	> 2560	0.451	4.54	0.897	> 500	0.88	> 10000	0.985	> 2560	0.985	> 10200
TOV-112D (ovary, adherent)	0.455	121	0.524	7.26	0.925	> 500	0.736	2960	0.859	2150	0.845	7490
TT2609-C02 (thyroid, adherent)	0.533	198	0.541	8.14	0.96	> 500	0.983	> 10000	0.806	1400	0.979	> 10200
TT (thyroid, adherent)	0.905	> 2560	0.908	> 100	0.972	> 500	0.978	> 10000	0.977	> 2560	0.983	> 10200
TUR (B-cell lymphoma, suspension)	0.255	34.1	0.38	3	0.985	> 500	0.933	> 10000	0.895	> 2560	0.786	4040
TYK-nu (ovary, adherent)	0.947	> 2560	0.547	8.48	0.985	> 500	0.983	> 10000	0.945	> 2560	0.985	> 10200
U251 (glioma, adherent)	0.277	38.6	0.554	8.74	0.982	> 500	0.975	> 10000	0.839	1630	0.766	3620
U-87-MG (glioma, adherent)	0.6	316	0.704	26.2	0.924	> 500	0.419	361	0.969	> 2560	0.98	> 10200

Cell Line	AUC (SNX-2112)	IC50 (SNX-2112) [nM]	AUC (Vinblastine)	IC50 (Vinblastine) [nM]	AUC (Afatinib; [1])	IC50 (Afatinib; [1]) [nM]	AUC (Afatinib; [2])	IC50 (Afatinib; [2]) [nM]	AUC (PF-562271)	IC50 (PF-562271) [nM]	AUC (XMD13-2)	IC50 (XMD13-2) [nM]
U-118-MG (glioma, adherent)	0.531	197	0.706	26.3	0.984	> 500	0.982	> 10000	0.981	> 2560	0.974	> 10200
U-698-M (B-cell leukaemia, suspension)	0.335	55.6	0.364	2.64	0.987	> 500	0.942	> 10000	0.952	> 2560	0.888	> 10200
UACC-62 (melanoma, adherent)	0.97	> 2560	0.509	6.6	0.965	> 500	0.969	> 10000	0.896	> 2560	0.962	> 10200
UACC-257 (melanoma, adherent)	0.835	2310	0.797	61	0.981	> 500	0.944	> 10000	0.93	> 2560	0.921	> 10200
UACC-893 (breast, adherent)	0.828	2360	0.763	48.2	0.667	107	0.501	629	0.981	> 2560	0.941	> 10200
UM-UC-3 (bladder, adherent)	0.321	52.6	0.553	8.64	0.987	> 500	0.971	> 10000	0.972	> 2560	0.941	> 10200
UMC-11 (lung carcinoid, adherent)	0.745	735	0.801	42.9	0.988	> 500	0.987	> 10000	0.953	> 2560	0.93	> 10200
VA-ES-BJ (soft tissue, adherent)	0.867	2540	0.429	3.95	0.984	> 500	0.976	> 10000	0.841	1930	0.962	> 10200
VAL (B-cell lymphoma, suspension)	0.274	36.4	0.632	14.5	0.98	> 500	0.964	> 10000	0.959	> 2560	0.695	2260
VCaP (prostate, adherent)	0.851	2080	0.602	12	0.981	> 500	0.984	> 10000	0.935	> 2560	0.896	> 10200
VMRC-MELG (melanoma, adherent)	0.61	325	0.813	56.9	0.988	> 500	0.988	> 10000	0.874	> 2560	0.987	> 10200
VMRC-RCW (kidney, adherent)	0.894	> 2560	0.891	> 100	0.966	> 500	–	–	0.987	> 2560	0.987	> 10200
VMRC-RCZ (kidney, adherent)	0.852	2500	0.684	22.4	0.907	> 500	0.956	> 10000	0.907	> 2560	0.94	> 10200
WIL2-NS (lymphoid neoplasm, suspension)	0.176	22	0.568	9.24	0.981	> 500	0.979	> 10000	0.946	> 2560	0.771	3230
WM35 (melanoma, adherent)	0.312	47.5	0.366	2.66	0.461	24.4	0.967	> 10000	0.664	459	0.811	5510
WM278 (melanoma, adherent)	0.305	42.1	0.51	6.67	0.978	> 500	0.982	> 10000	0.799	1410	0.974	> 10200
WM793B (melanoma, adherent)	0.34	54.6	0.597	11.9	0.948	> 500	0.967	> 10000	0.884	> 2560	0.924	> 10200
WM1552C (melanoma, adherent)	0.91	> 2560	0.725	27.4	0.982	> 500	0.97	> 10000	0.895	> 2560	0.922	> 10200
WM-115 (melanoma, adherent)	0.436	103	0.541	8.31	0.963	> 500	0.979	> 10000	0.968	> 2560	0.861	> 10200
WSU-DLCL2 (B-cell lymphoma, suspension)	0.894	2160	0.406	3.62	0.993	> 500	0.979	> 10000	0.992	> 2560	0.918	> 10200
WSU-NHL (lymphoid neoplasm, suspension)	0.237	31.1	0.365	2.78	0.968	> 500	0.99	> 10000	0.936	> 2560	0.929	> 10200
YAPC (pancreas, adherent)	0.795	1530	0.85	> 100	0.94	> 500	0.848	> 10000	0.913	> 2560	0.973	> 10200

The IC50 comes from the fitted curve, where viability falls to half of the control; where the fit passes the top or lowest dose, that dose stands as a limit. AUC is the area under the same curve over the 256-fold range up to the top dose, as a fraction; it is 1 without any effect and falls as sensitivity rises. For part of these data: The top dose, if marked as inferred, was derived from the fitted curves, not read from the paper. For part of these data: Drugs with an entry number were screened twice under separate entries, and the two screens often disagree.
